The results in this text go back to the supplement of paper PMC8512760.

The other results are listed elsewhere or left out. Repeats are few or missing, and single values can be far off.

Some test systems named below: HCC-1143; HCC-1187; MDA-468; SUM-149.
What all share (assay): cell viability relative to vehicle (% of vehicle); basal-like triple-negative breast cancer lines; higher = less cytotoxic
Holding throughout (details): 10 µM; 72 h
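Further: stably firefly luciferase-GFP labeled cells in 96-well plates, viability read as luciferase photon flux after d-luciferin addition, treated wells normalized to vehicle wells, single-dose high-throughput screen.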

`COc1cc(C=CC(=O)CC(=O)C=Cc2ccc(O)c(OC)c2)ccc1O` [Curcumin]: the cell viability is 94.6 with HCC-1143, 99 in the test on HCC-1187, 90 in the test with MDA-468 and 126 in the test with SUM-149.
As to `NC(=O)c1ccc(I)c([N+](=O)[O-])c1` [Iniparib (BSI-201)], the cell viability turned out to be 78.4 with HCC-1143, 89.2 with HCC-1187, 127 with MDA-468 and 96.4 in the test with SUM-149.
For the compound `CC12C=CC(=O)C=C1CCC1C2C(O)CC2(C)C1CCC2(O)C(=O)CO` (centres undefined) [Prednisolone], the cell viability was 127 with HCC-1143, 111 with HCC-1187, 151 with MDA-468 and 169 with SUM-149.
For `O=C(NS(=O)(=O)c1ccc(Br)s1)c1ccc(Cl)cc1Cl` [Tasisulam], the cell viability with HCC-1143 is 66.4; in the test with HCC-1187, 81.2; in the test on MDA-468 it was 116; with SUM-149, 117.
For `CN(C)NN=C1N=CN=C1C(N)=O` [Dacarbazine], the cell viability in the test with HCC-1143 came to 88.6; in the test on HCC-1187, 91.7; in the test on MDA-468, 87.2; in the test on SUM-149 it was 144.
For `Cc1c(O)c(=O)ccn1C` [Deferiprone] the same measures were 104, 107, 113 and 109.
For `Cc1cc(Nc2cc(CN3CCOCC3)c3nc(C)c(Cc4ccc(Cl)cc4F)n3n2)n[nH]1`, the cell viability was determined as 85.2 in the test with HCC-1143, 51.3 with HCC-1187, 69.8 in the test on MDA-468 and 153 in the test on SUM-149.
Taken in the same sequence, the figures for `CN1CCN(C2=c3ccccc3=Nc3ccc(Cl)cc3N2)CC1` [Clozapine] were 75, 98.6, 95 and 79.4.
Taken in the same sequence, the figures for `C[N+](C)(C)CC(=O)[O-]` [Betaine] were 90.2, 87.9, 116 and 91.6.
For `Cc1cn(-c2cc(/N=C(\O)c3ccc(C)c(Nc4nccc(-c5cnccn5)n4)c3)cc(C(F)(F)F)c2)cn1` [Radotinib(IY-5511)], the cell viability was found to be 77.7 with HCC-1143, 82.7 in the test with HCC-1187, 102 with MDA-468 and 55.8 with SUM-149.
Consider `CCC1OC(=O)C(C)C(OC2CC(C)(OC)C(O)C(C)O2)C(C)C(OC2OC(C)CC(N(C)C)C2O)C(C)(O)CC(C)C(=O)C(C)C(O)C1(C)O` (centres undefined) [Erythromycin], for which the cell viability in the test with HCC-1143 worked out at 92.6; with HCC-1187, 85.3; with MDA-468, 68.2; in the test on SUM-149 it was 103.
